Assay results as given in PubChem BioAssay AID686971 (National Center for Advancing Translational Sciences (NCATS), 2013).
Out of some 360,000 compounds screened, about 7,500 (2.1%) were called active. The shares of active, inactive and inconclusive entries below differ from those in the screen. Calls follow the shape of the dose curve; as a rule, active = well fitted cell-killing curve with a large enough effect; inconclusive = small, poorly fitted or top-dose-only effect, or effect the other way, or another doubt; inactive = no such curve, though single readings can be large or run the other way. Potencies of inconclusive entries are left out as doubtful fits.

experiment: qHTS for induction of synthetic lethality in tumor cells producing 2HG: qHTS for the HT-1080-IDH1KD cell line; conditions: HT-1080 IDH1 knockdown viability, ATP luminescence, 48 h; activity, negative = toxicity: at 46.1 µM (top of the series) unless noted;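 as to activity, negative = toxicity: 0% = DMSO wells and -100% = cell-free medium wells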
Method in brief: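 CellTiter-Glo luminescence after 48 h compound exposure at 37 degrees C of IDH1-knockdown HT-1080 cells in 5% FBS RPMI. %Activity scaled between DMSO wells and cell-free media wells, with curves fitted and assigned curve classes.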
Potency is read from the fitted curve at half-maximal effect; tags tell the direction and shape of the fitted curve.

SMILES | Potency | activity, negative = toxicity
COC(=O)c1cc(C(=O)OC)n(Cc2ccc(F)cc2)c1C | inactive | –
O=c1c2ccccc2nc(/C=C/c2ccc(O)cc2)n1CCc1ccccc1 | inconclusive [cytotoxic, single point] | –
CC1(CCc2ccccc2)NC(=S)N(c2ccc(Cl)cc2)N1 (stereo unspecified) | inconclusive [cytotoxic, full curve] | –
Cc1c(CCCl)c(Cl)n2c(nc3ccccc32)c1C#N | active: 2.31 µM | –
Cc1cccc(/C=N/Nc2cc(N3CCOCC3)nc(N3CCOCC3)n2)c1 | inconclusive [cytotoxic, single point] | –
O=[N+]([O-])c1ccc(CSc2nnc(SCc3ccccc3)s2)cc1 | inactive | –
CC(C)(C)C(=O)N1CCN(c2ncnc3scc(-c4ccccc4)c23)CC1 | inconclusive [cytotoxic, single point] | –
CCCCCCCCN1C(=O)[C@H](CC(=O)NCc2ccc(OC)c(OC)c2)C[C@@]2(C(=O)OC)CCCCC=C12 | inconclusive [cytotoxic, single point] | –
Cc1cc(C(=O)N/N=C/c2ccc3c(c2)OCO3)c2ccccc2n1 | active: 4.11 µM | –
CCCNC(=O)Nc1cc(OCC)c(N2CCOCC2)cc1OCC | inactive | –
COc1cccc2c1[C@@H]1CN(CCCCn3c(=O)[nH]c4c(sc5ncc(-c6ccccc6)nc54)c3=O)C[C@@H]1CO2 | inconclusive [cytotoxic, single point] | –
O=C(N/N=C/c1ccc(Cl)cc1)c1ccc2c(c1)OCO2 | inconclusive [cytotoxic, partial curve] | –
O=C1NC[C@@H](CCCCN2C[C@H](Cc3ccccc3)N(CCc3ccccc3)C(=O)C2=O)N(CCc2ccccc2)C1=O | inconclusive [cytotoxic, single point] | –
Cc1nn(-c2ccccc2)c(Cl)c1C1C(C#N)=C(N)OC2=C1C(=O)CC(C)(C)C2 (stereo unspecified) | inconclusive [cytotoxic, single point] | –
O=[N+]([O-])c1ccccc1C(O)Cc1ccccn1 (stereo unspecified) | inconclusive [rising, partial curve] | –
CC(C)Cn1c(N)c(C(=O)COC(=O)c2ccc(O)cc2O)c(=O)n(C)c1=O | inconclusive [cytotoxic, single point] | –
COc1cc(/C=N/NC(=O)c2ccccn2)cc2c1OCO2 | inactive | –
C/C(CCc1oc2ccc(Cl)cc2c1-c1ccc(C)o1)=N\O | inconclusive [cytotoxic, single point] | –
CC(=O)c1ccc(N2CCN(S(=O)(=O)c3ccc4c(c3)NC(=O)CC(=O)N4)CC2)cc1 | inconclusive [cytotoxic, single point] | –
CCOc1ccccc1N(C(=O)c1snc(C(N)=O)c1N)C(C(=O)NCc1ccccc1)c1ccc(O)cc1 (stereo unspecified) | inconclusive [cytotoxic, single point] | –
Cc1[nH]c2ccccc2c1C(C[N+](=O)[O-])c1cccs1 (stereo unspecified) | inconclusive [cytotoxic, partial curve] | –

SMILES | Potency | activity, negative = toxicity
O=C(N/N=C/c1ccc2c(c1)OCO2)c1cccs1 | inconclusive [cytotoxic, single point] | –
Cc1[nH]c2ccccc2c1C(O)CN1CCN(c2cccc(C(F)(F)F)c2)CC1 (stereo unspecified) | inconclusive [cytotoxic, single point] | –
O=C1C=C(NCc2ccc(Cl)cc2)CC(c2ccco2)C1 (stereo unspecified) | inconclusive [cytotoxic, single point] | –
CC1CCN(c2ccccc2NC(=O)c2cc3ccccc3o2)CC1 | inactive | –
CN(CC(=O)Nc1ccc(S(=O)(=O)N2CCCC2)cc1)Cc1cccc(Cl)c1Cl | inactive | –
Cc1cccc(N2CCN(S(=O)(=O)c3c(C)[nH]c(C)c3C(=O)N3CCCCC3)CC2)c1C | inconclusive [cytotoxic, single point] | –
C/C(CCS(=O)(=O)c1ccccc1)=N/O | inactive | –
COc1ccc(OC)c(NC(=O)C2(C)CCN2Cc2ccc(OC)c3ccccc23)c1 (stereo unspecified) | inconclusive [cytotoxic, single point] | –
COc1ccc(CC(N)c2csc(NC(=O)c3ccc(F)cc3)n2)cc1 (stereo unspecified) | inconclusive [cytotoxic, partial curve] | –
COc1cc(SC)ccc1C(=O)NNC(=O)c1cc(C)oc1C | active: 9.2 µM | –
CCOc1ccccc1OCC(=O)Nc1ccc(S(=O)(=O)N(C)C)cc1 | inactive | –
COCCn1nnnc1C(C(C)C)N(Cc1ccccc1)Cc1cc2cc(OC)ccc2[nH]c1=O (stereo unspecified) | inconclusive [cytotoxic, single point] | –
CCCCN(C(=O)c1ccccc1Cl)C(CC(C)C)c1nc2ccccc2[nH]1 (stereo unspecified) | inconclusive [cytotoxic, single point] | –
CC1(C(=O)NCc2cccc(C(F)(F)F)c2)CCN1Cc1ccc(-c2ccccc2)o1 (stereo unspecified) | inconclusive [cytotoxic, single point] | –
COc1ccc(C2C(C(=O)c3ccccc3)N3c4ccccc4C=CC3C2[N+](=O)[O-])cc1 (stereo unspecified) | inconclusive [cytotoxic, single point] | –
COc1ccc(N2CCN(CCNC(=O)Nc3ccc(C)c(Cl)c3)CC2)cc1 | – | inconclusive: -30.8% [cytotoxic]
O=C(Cc1ccc(Br)cc1)Nc1ccccc1Sc1ccccc1 | inconclusive [cytotoxic, single point] | –
CC(=O)N1CCN(S(=O)(=O)c2cccc(C(=O)Nc3ccc(OC(F)F)cc3)c2)CC1 | – | inconclusive: -28.8% [cytotoxic]
COc1ccc(/C=N/NC(=O)Cc2csc(Nc3cccc(C(F)(F)F)c3)n2)cc1C | inconclusive [cytotoxic, single point] | –
Oc1ccc(C[C@H]2CNC(=S)N2CC2CCCN2C[C@H](Cc2ccc(O)cc2)N2C[C@H](Cc3ccc(O)cc3)N(CC3CCCCCC3)C2=S)cc1 (stereo partly specified) | inconclusive [cytotoxic, single point] | –
